The other results are listed elsewhere or left out.
system: T1, Caupolican (Caup) homeodomain DNA-binding domain; assay: PBM E-score (8-mer, recovered from the published 9-mer minima) (E-score (dimensionless, -0.5 to 0.5)); Drosophila protein; higher = stronger relative binding preference, active = 0.31 or more
T1 sequence: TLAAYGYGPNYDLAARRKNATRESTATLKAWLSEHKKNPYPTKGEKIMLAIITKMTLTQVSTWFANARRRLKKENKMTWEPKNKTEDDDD
Procedure, shortened: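 An enrichment score, with higher meaning stronger, expresses relative binding preference for each short DNA word. The protein used was Caup's homeodomain DNA-binding domain (residues 214-303), produced by in vitro transcription and translation and tested at 100 nM on custom-designed protein binding microarrays. The 8-mer values were recovered from published 9-mer scores, each equal to the lower of its two constituent 8-mer scores.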

Sequence	PBM E-score
CTTCAGAA	inactive: 0.00974
GCTATAAC	inactive: 0.0192
AGGAAGGC	inactive: -0.183
ATGTAACA	active: 0.429
AAAGGAAA	inactive: 0.0116
CTCGGCGA	inactive: -0.115
GTGTTTCA	inactive: 0.157
ACCTTCGG	inactive: -0.111
CAATGTCC	inactive: 0.126
ATCAGCCC	inactive: -0.0797
CCATATTC	inactive: 0.011
AACTGGGT	inactive: -0.0436
CTATTAGC	inactive: 0.0355
ACGATTTG	inactive: 0.11
AAATGCCC	inactive: -0.095
ACCTTCCG	≥ -0.0159
CGTCTGAA	inactive: -0.00988
ATAGCCAA	inactive: -0.0193
GCGGTGCA	inactive: -0.164
AATGAGTA	inactive: 0.114
ATTAAATG	inactive: 0.178
CTGTACCC	inactive: 0.0319
GGTAAAGA	inactive: -0.00885

Sequence	PBM E-score
CTGGCTTA	inactive: -0.0641
GGTTCGCA	inactive: -0.153
AATTTTAA	inactive: 0.00507
GCTTGGGA	inactive: -0.133
ACATCCGG	inactive: 0.104
CGGACGCC	inactive: -0.273
ATCAGCAG	inactive: 0.0216
AGGAGCCT	inactive: -0.198
CACTGGAG	inactive: -0.159
ACAGCGTC	inactive: 0.0446
GGATGGAA	inactive: -0.076
AATGGCCT	inactive: -0.108
TAAGTACA	active: 0.332
GGGTCCAA	inactive: -0.0464
CGGACCTA	inactive: -8e-05
GGAATAAA	inactive: 0.103
ATCATAAA	≥ 0.216
TTCCGAAA	inactive: 0.094
CCAAGTTA	inactive: 0.0407
ATTTAATC	inactive: 0.0796
CAGGAATA	inactive: 0.104
GGTCCGTA	inactive: -0.0633
CATTTTCA	inactive: 0.103

Sequence	PBM E-score
ACACTCCC	inactive: -0.0391
GAGTAGCA	inactive: -0.029
CAAGCCAA	inactive: 0.0502
ATAGACTC	inactive: -0.0161
CAACCTTA	inactive: 0.0881
CTTAATTA	inactive: 0.143
CAGACTAC	inactive: 0.0814
CGTTCCAC	inactive: -0.0743
ACACAGCG	inactive: 0.178
AGGCCTGG	inactive: -0.126
TAGTCCAA	inactive: 0.0286
GTGATGGA	inactive: 0.00106
TCCGTGCA	inactive: 0.0189
ACATACGA	≥ 0.289
ACATCGTA	inactive: 0.241
AGTACTGG	inactive: -0.00493
ATGTTTGC	inactive: 0.224
TCGTTCCA	inactive: 0.0144
ATTAAAGA	inactive: 0.0678
ACCGAGCG	inactive: -0.0495
ACTACTCA	≥ 0.116
ACGTACGT	≥ 0.0832
CGGCCTAG	inactive: -0.296

Sequence	PBM E-score
CTAAAACC	inactive: -0.0346
AAAGGCAC	inactive: -0.0852
ACAGCACG	inactive: 0.0526
CGCGTCGA	inactive: 0.00461
AACACCAA	inactive: 0.231
AGTACAAG	active: 0.416
ATACAACG	inactive: 0.283
ATCATTTC	inactive: 0.0386
GATGCACC	inactive: -0.033
AGGACTAG	inactive: 0.0628
ACTGCTTC	inactive: -0.165
CTAACCAC	inactive: 0.0967
GATTGCCC	inactive: -0.0856
CGTTTGTC	inactive: 0.0653
CAAGAAGG	inactive: -0.0209
AATGTTCA	inactive: 0.244
GTCCGTGA	inactive: 0.0381
CGTCAAGC	inactive: -0.141
AGACTGAT	inactive: 0.0435
GGTCGGTA	inactive: -0.0686
CGGGGGCC	inactive: -0.308
CACTCTGC	inactive: -0.033
GCAGTATA	inactive: -0.0375

Sequence	PBM E-score
TCGGCTCA	inactive: -0.131
GCCATGGA	inactive: -0.137
GAGTACGA	inactive: 0.0431
AACATGAC	active: 0.42
ACCTGGCT	inactive: -0.126
CGTCGCGA	inactive: -0.0662
CTAGCGAC	inactive: -0.0181
AATCCCAG	inactive: -0.0508
GTGCCCTA	inactive: -0.0962
GTCGCTTA	inactive: 0.0465
TATCGGAA	inactive: 0.0409
AGTCCATC	inactive: 0.00442
CCGTATAG	inactive: -0.0272
GTCTTTAA	inactive: 0.0822
CCAGTACG	inactive: -0.0139
AGACATAA	inactive: 0.217
GCAGAAGA	inactive: -0.113
ATTTTATG	inactive: 0.146
CTACGTGC	inactive: -0.0769
AGTTAAGG	inactive: -0.0195

— the supplement of paper PMC3724861
